Experimental data: PubChem BioAssay AID1508623 (National Center for Advancing Translational Sciences (NCATS), 2021)
In all, about 48,000 compounds went through this assay and about 450 (0.94%) were called active. About 19% were inconclusive and are not listed. The call rests on the fitted dose curve; in most records, active means well fitted inhibition curve with a large enough effect; inconclusive means small, poorly fitted or top-dose-only effect; inactive means no such curve, though single readings can be large or run the other way. Some of the results follow.

test: Primary qHTS for Identification of Small Molecule Inhibitors of Huntingtin Promoter Activity; details: HEK293 HTT promoter firefly luciferase reporter (activity 0% = vehicle and -100% = no light), 24 h; series mostly up to 57.5 µM; activity change, negative = inhibition: at the top concentration; further: nearly all actives have a fitted effect of over 50% in size
Outline: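 Quantitative HTS used concentration series of up to 57.5 uM final on HEK293 luciferase reporter cells, 24 h at 37 degrees C. Readout was Dual-Glo firefly luminescence.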

Activity change, negative = inhibition, inactive:
O=C(Cn1cc(C(=O)C(F)(F)F)c2ccccc21)N1CCCCCC1 -12.4%, O=C(COc1ccc2ccccc2c1)NC1CC(=O)N(c2ccc(F)cc2)C1 (stereo not drawn) 5.71%, CCOc1ccccc1NC1(c2ccccc2)C(=O)c2ccccc2C1=O -13.9%, CC1CCCCN1CCCNC(=O)c1cc(Sc2cccc(Cl)c2)nc2ccccc12 (stereo not drawn) -27.3%, Cc1ccccc1CN1c2ccccc2-c2nc(SCC(=O)c3ccccc3)ncc2S1(=O)=O -6.49%, Cc1ccccc1OCc1nc2c3cnn(-c4cccc(F)c4)c3ncn2n1 -8.65%, Cc1c(CNC2CCCCC2)c(C(=O)O)c(C)n1Cc1ccccc1F -8.62%, CCNC(=O)c1c(NC(=O)Cc2coc3ccc(CC)cc23)sc2c1CCCC2 -30%, CC(C)(C)C(=O)C(Oc1ccc(Cl)cc1)n1ccnc1 (stereo not drawn) 1.11%, COc1cccc(C2C(C(=O)Nc3ccc(Cl)cc3)=C(C)Nc3nc4ccccc4n32)c1OC (stereo not drawn) -20.6%, CCCCNC(=O)c1c(-c2ccccc2)c(-c2ccccc2)nn(C)c1=O -6.89%, Cc1oc2ncn(CC(C)C)c(=O)c2c1C(=O)N(CCN(C)C)Cc1ccccc1 8.73%, CCCCNC(=O)c1ccc2c(c1)N(CC)C(=O)c1ccccc1S2 -27.8%, CCCc1nnc(NC(=O)c2cc(=O)c3ccccc3o2)s1 47.5%, CCOC(=O)c1c(C)n(-c2ccccc2)c2ccc(OC(=O)COc3ccccc3)cc12 3.82%, CCCCNC(=O)CN1C(=O)c2cccnc2Sc2ccccc21 -14%, CC1=C(C(=O)Nc2cccnc2)C(c2cccc(F)c2)n2nc(SCc3ccccc3F)nc2N1 (stereo not drawn) -8.91%, O=C(CSc1nc(=O)[nH]c2c1CCCC2)NCc1ccccc1Cl -8.16%, COc1ccc(C)cc1NC(=O)c1cc(S(=O)(=O)N2CCOCC2)cn1C 27.6%, CCn1c2ccccc2c2cc(CN3CCN(Cc4cc(OC)c(O)c(OC)c4)CC3)ccc21 -1.72%, O=C(Nc1cccc(Cl)c1Cl)c1ccc2c(c1)N(Cc1cccc(Cl)c1)C(=O)c1ccccc1S2=O (stereo not drawn) -14.4%, Cc1ccc(NC(=O)c2sc3ncn(Cc4cccc(F)c4)c(=O)c3c2C)c(Br)c1 19.7%, Cc1ccc(C)c(NC(=O)Cn2nc(C)c3nn(-c4ccc(Cl)cc4)c(C)c3c2=O)c1 -17%, CCOc1ccccc1NC(=O)CCCc1nc(-c2ccccc2Cl)no1 -10.8%, COc1ccc(CNC(=O)CCS(=O)(=O)c2cc(Br)cc3c2N(C(C)=O)C(C)C3)cc1 (stereo not drawn) -18.2%, CCOc1ccc(CCNC(=O)c2cc3c(=O)n(CC)c4ccccc4c3s2)cc1OCC 3.49%, CCc1cccc(NC(=O)CSc2nncn3c2cc2sccc23)c1 3.58%, Cc1ccc(Cl)cc1N1CCN(C(=O)CN2C(=O)COc3ccc(S(=O)(=O)N4CCCCCC4)cc32)CC1 -31.3%, CCN(Cc1ccccc1)C(=O)c1cc(-c2ccccc2)n[nH]1 5.96%, Cc1c(C(=O)O)c(O)cc2c1C(=O)c1c(O)c([C@@H]3O[C@H](CO)[C@@H](O)[C@H](O)[C@H]3O)c(O)c(O)c1C2=O -7.24%, Cc1c(C)n(Cc2ccccc2)c2ccc(C(=O)N3CCN(c4ccc(F)cc4)CC3)cc12 -11.7%, Cn1cnc(S(=O)(=O)N2CCCC(C(=O)NCc3ccc(Cl)cc3)C2)c1 (stereo not drawn) -23.7%, CCN(CC)S(=O)(=O)c1ccc2c(c1)N(CC(=O)N1CCN(c3ccc(OC)cc3)CC1)C(=O)CO2 -9.79%, Cc1ccccc1Nc1c(-c2cccc(Cl)c2)nc2ncccn12 -9.03%, COc1ccc(-n2c(SCC(N)=O)nc3c(oc4ccccc43)c2=O)cc1 -20.2%, CC(C)CN1CCc2nc(Nc3ccc(F)cc3F)ncc2C1 52.6%, Cc1ccccc1OCC(O)CO (stereo not drawn) 8.62%, CC(=O)N1CCc2c(sc3c2c(=O)n(Cc2ccccc2)c(=O)n3Cc2ccccc2F)C1 -23.6%, O=C(Cc1cccs1)Nc1c(C(=O)Nc2ccc(F)cc2)oc2ccccc12 4.5%, Cc1[nH]c(C=C2C(=O)Nc3ccc(S(=O)(=O)Cc4c(Cl)cccc4Cl)cc32)c(C)c1C(=O)N1CCC[C@H]1CN1CCCC1 -2.19%, CCC(Sc1nc(-c2ccc(F)cc2)nc2c1Cc1c(CO)cnc(C)c1O2)C(=O)Nc1ccc(F)cc1 (stereo not drawn) -13.6%, COc1c(Cl)cc(C(=O)N(Cc2ccccc2F)C2CCS(=O)(=O)C2)cc1Cl (stereo not drawn) 3.05%, CC(C)(C)OC(=O)N1CCc2nc(N3CCN(c4ncccn4)CC3)ncc2C1 17.1%, Cn1c(=O)c2c(nc(SCC(=O)Nc3ccc(F)cc3)n2Cc2ccccc2F)n(C)c1=O 9.15%, COc1ccc(C(CNC(=O)c2ccc(F)cc2)N2CCCC2)cc1 (stereo not drawn) 0.0573%, Cc1cc(C)cc(NC(=O)N2CCC(CN3CCCCCC3)CC2)c1 -11%, CCCSc1ncc(Cl)c(C(=O)Nc2c(C(=O)c3ccc(C)cc3)oc3ccccc23)n1 -8.35%, CCC(=O)N1c2ccc(S(=O)(=O)CCC(=O)N3CCN(c4cc(C)ccc4C)CC3)cc2CC1C (stereo not drawn) -23.6%
